For assay [1], the target named is T1, 3Flag tagged BNIP1 (human) (UniProt Q12981).
T1 sequence: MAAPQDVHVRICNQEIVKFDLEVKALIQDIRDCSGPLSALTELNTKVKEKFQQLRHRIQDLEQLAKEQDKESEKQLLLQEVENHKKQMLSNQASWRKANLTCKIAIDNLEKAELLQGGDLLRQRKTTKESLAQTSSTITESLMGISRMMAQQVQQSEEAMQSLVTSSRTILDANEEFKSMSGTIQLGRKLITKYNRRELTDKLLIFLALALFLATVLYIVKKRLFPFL
The assay is described as follows: co-IP; 293T cells co-transfected with 3Flag-BNIP1 and with Myc-Ub and RNF185-2HA or empty vectors; IP of BNIP1 and blot for endogenous p62.

By UniProt entry, the sequences of proteins in these tests, tags left out.
UniProt Q9H1Y0: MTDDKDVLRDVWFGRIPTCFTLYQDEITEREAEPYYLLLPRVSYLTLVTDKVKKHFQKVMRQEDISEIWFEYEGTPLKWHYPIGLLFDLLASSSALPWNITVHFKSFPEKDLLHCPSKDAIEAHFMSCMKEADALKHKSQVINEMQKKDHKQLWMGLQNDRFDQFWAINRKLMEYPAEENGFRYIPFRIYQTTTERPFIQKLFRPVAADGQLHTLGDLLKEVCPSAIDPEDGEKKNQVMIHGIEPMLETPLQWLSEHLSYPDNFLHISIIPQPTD

Assay [2] concerns the target T2, 3Flag tagged RNF185 (human) (UniProt Q96GF1).
T2 sequence: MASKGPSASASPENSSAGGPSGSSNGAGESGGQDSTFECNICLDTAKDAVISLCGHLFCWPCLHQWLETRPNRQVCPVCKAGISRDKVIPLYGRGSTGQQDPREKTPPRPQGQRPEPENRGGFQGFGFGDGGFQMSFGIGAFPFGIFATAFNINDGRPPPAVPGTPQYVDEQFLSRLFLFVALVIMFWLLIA
The assay is described as follows: co-IP; 293T cells co-transfected with a 3Flag tagged and a 2HA tagged construct; 24 h later lysates (50 mM Tris-HCl pH 7.5, 150 mM NaCl, 1 mM EDTA, 1% Triton X-100, 10% glycerol) precipitated with anti-Flag conjugated beads and blotted with anti-Flag and anti-HA.

The target of assay [3] is T2, 3Flag tagged RNF185 (human). The assay is described as follows: co-IP; 293T cells transfected with 3Flag tagged RNF185 or empty vector; lysates precipitated as in Fig. 5A and blotted for endogenous BNIP1.
A further assay addresses 3Flag tagged ATG5 (UniProt Q9H1Y0). Nature of the assay: co-IP; 293T cells co-transfected with a 3Flag tagged and a 2HA tagged construct; 24 h later lysates (50 mM Tris-HCl pH 7.5, 150 mM NaCl, 1 mM EDTA, 1% Triton X-100, 10% glycerol) precipitated with anti-Flag conjugated beads and blotted with anti-Flag and anti-HA.
In assay [4] the target is T1, 3Flag tagged BNIP1 (human). The description is as above.

No constants are given. Whether binding was seen depends on the method and setting. Binding seen in cells or lysates may run through a third protein. Some results given as binding are weak or reduced against the parent protein; the word gives no strength. Tags and fused reporters may be left off the sequences shown.

Regarding “endogenous p62 (from UniProt Q13501 1-440)”, the binding entry in assay [1] is given as “binds”.

B1: 2HA tagged BNIP1 (protein, UniProt Q12981 1-228)
chain: MAAPQDVHVRICNQEIVKFDLEVKALIQDIRDCSGPLSALTELNTKVKEKFQQLRHRIQDLEQLAKEQDKESEKQLLLQEVENHKKQMLSNQASWRKANLTCKIAIDNLEKAELLQGGDLLRQRKTTKESLAQTSSTITESLMGISRMMAQQVQQSEEAMQSLVTSSRTILDANEEFKSMSGTIQLGRKLITKYNRRELTDKLLIFLALALFLATVLYIVKKRLFPFL
B1: the binding entry in assay [2] is listed as “binds”.

B2: endogenous BNIP1 (protein, UniProt Q12981 1-228)
chain: MAAPQDVHVRICNQEIVKFDLEVKALIQDIRDCSGPLSALTELNTKVKEKFQQLRHRIQDLEQLAKEQDKESEKQLLLQEVENHKKQMLSNQASWRKANLTCKIAIDNLEKAELLQGGDLLRQRKTTKESLAQTSSTITESLMGISRMMAQQVQQSEEAMQSLVTSSRTILDANEEFKSMSGTIQLGRKLITKYNRRELTDKLLIFLALALFLATVLYIVKKRLFPFL
On to B2, for which the binding result in assay [3] is reported as “binds”.

B3: 2HA tagged Bcl-w (protein, UniProt Q92843 1-193)
chain: MATPASAPDTRALVADFVGYKLRQKGYVCGAGPGEGPAADPLHQAMRAAGDEFETRFRRTFSDLAAQLHVTPGSAQQRFTQVSDELFQGGPNWGRLVAFFVFGAALCAESVNKEMEPLVGQVQEWMVAYLETQLADWIHSSGGWAEFTALYGDGALEEARRLREGNWASVRTVLTGAVALGALVTVGAFFASK
In the case of B3, the binding result in assay [2] is “no binding”.

B4: 2HA tagged RNF185 (enzyme, UniProt Q96GF1-1 1-192)
chain: MASKGPSASASPENSSAGGPSGSSNGAGESGGQDSTFECNICLDTAKDAVISLCGHLFCWPCLHQWLETRPNRQVCPVCKAGISRDKVIPLYGRGSTGQQDPREKTPPRPQGQRPEPENRGGFQGFGFGDGGFQMSFGIGAFPFGIFATAFNINDGRPPPAVPGTPQYVDEQFLSRLFLFVALVIMFWLLIA
With B4, the binding result (in the assay with 3Flag tagged ATG5; in assay [4]) was “binds” throughout.

The values are drawn from article PMC3170314.
